PMC6919601, “Identification of Plasmodium dipeptidyl aminopeptidase allosteric inhibitors by high throughput screening” (PLoS ONE, 2019)
Among all 110,000 compounds or so, about 230 (0.21%) showed an effect of 50% or more. This is one part of the list.

Each compound was assayed against DPAP1 (Plasmodium falciparum, UniProt Q8IIJ9) (assay: primary screen, percent inhibition; read by cleavage of a fluorogenic dipeptide substrate; higher = more effect of the substance).
Set-up: species or system P. falciparum D10 trophozoite lysates; single well
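Note: 30 min substrate incubation versus DMSO and 10 µM JCP410 controls.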

DPAP1, sequence (Q8IIJ9 whole entry, looked up): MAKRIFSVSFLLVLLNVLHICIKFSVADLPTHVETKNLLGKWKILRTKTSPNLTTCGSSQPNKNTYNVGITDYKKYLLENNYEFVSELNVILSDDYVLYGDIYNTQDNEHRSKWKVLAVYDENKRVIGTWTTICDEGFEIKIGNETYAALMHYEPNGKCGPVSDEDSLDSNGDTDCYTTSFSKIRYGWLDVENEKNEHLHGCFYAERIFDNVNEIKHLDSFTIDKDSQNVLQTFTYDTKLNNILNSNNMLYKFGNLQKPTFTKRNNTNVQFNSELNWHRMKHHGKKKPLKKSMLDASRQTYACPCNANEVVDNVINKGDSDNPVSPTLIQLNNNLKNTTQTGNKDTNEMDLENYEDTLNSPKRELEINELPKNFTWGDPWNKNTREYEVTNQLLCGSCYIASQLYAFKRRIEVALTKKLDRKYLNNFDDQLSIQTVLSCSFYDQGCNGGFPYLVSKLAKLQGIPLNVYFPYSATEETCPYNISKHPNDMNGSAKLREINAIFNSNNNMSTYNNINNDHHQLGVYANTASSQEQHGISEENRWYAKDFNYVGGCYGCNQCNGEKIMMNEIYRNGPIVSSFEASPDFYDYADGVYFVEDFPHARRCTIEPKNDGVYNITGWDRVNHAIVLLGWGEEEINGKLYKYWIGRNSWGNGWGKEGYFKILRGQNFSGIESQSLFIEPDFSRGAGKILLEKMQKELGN

Row | Structure (SMILES) | % Inhibition @ 10 uM [%]
1 | CCOC(=O)c1cnc(SCC(=O)NC2CCCCC2)nc1N | 2.21
2 | CCCCCN1C(C(=O)c2ccccc2)=C(NC(=O)c2ccc(F)cc2)c2ccccc2S1(=O)=O | 0.315
3 | O=C1C=C(N2CCN(c3ncccn3)CC2)C(=O)N1c1ccc(Br)cc1 | 0.76
4 | Cc1c(Cl)cccc1NC(=O)/C=C\C(=O)O | -0.197
5 | COc1ccc(-c2nc3cc(C)ccn3c2NC(=O)COc2ccccc2)cc1 | -2.74
6 | COc1cc(/C=N/n2c(SC)nnc2-c2ccccc2)c(Cl)cc1O | 5.44
7 | COc1ccc(CN2CCCCC2C)cc1C (stereo not shown) | -6.18
8 | CC[C@H](NC(=O)[C@@H](NC(=O)c1ccc(-c2ccccc2Cl)cc1)C1CCCCC1)C(=O)c1nc2ncccc2o1 | -1.82
9 | CCSC1=C(C#N)C(=O)NC(c2ccc(O)cc2)S1 (stereo not shown) | 7.94
10 | O=C(O)CCCNCP(=O)(O)CCc1ccccc1 | 0.0719
11 | COc1ccccc1OCc1ccc(C(=O)N2CCCCC2)o1 | 0.909
12 | CC(C)CCNC(=O)CCN1C(=O)c2ccccc2Sc2ncccc21 | -2.1
13 | COc1ccc(-c2[nH]c3c(C#N)cnn3c2NC2CCCC(C)C2C)cc1 (stereo not shown) | 0.596
14 | CCOC(=O)N1CCN(C(=O)C2CCN(C(=O)c3cc4sccc4n3CC)CC2)CC1 | 4.95
15 | CCc1nnc(NC(=O)CSc2nnc(Cc3cccn3C)n2-c2ccccc2)s1 | 0.44
16 | COc1ccc(CCNC(=O)c2cc(C(F)(F)F)nn2C)cc1 | 1.84
17 | O=C(Nc1cccnc1Cl)c1cc(-c2ccccc2F)no1 | -0.361
18 | Cc1nnc(N2CCC(C(=O)NCC(C)c3ccccc3)CC2)c2nn(-c3ccccc3)c(C)c12 (stereo not shown) | 2.99
19 | Cc1ccc(SCCC(=O)NCc2ccccc2Cl)cc1 | 2.13
20 | CCSC1=C(C#N)C(c2ccccc2)C(c2ccccc2)C(=O)N1 (stereo not shown) | 3.19
21 | CCOc1ccc(CC(=O)Nc2ccc(OC)cc2Cl)cc1OCC | -4.52
22 | CC1(C)CC(n2c(=S)[nH]c3c(c2=O)C2(CCCC2)Cc2ccccc2-3)CCO1 (stereo not shown) | 1.72
23 | COc1ccc(/C=C2/CCCC3=C2OC(N)=C(C#N)C3c2ccc(OC)cc2OC)c(OC)c1 (stereo not shown) | 4.7
24 | Cn1c(C(=O)N2CCCC(C(=O)N3CCC(Cc4ccccc4)CC3)C2)cc2sccc21 (stereo not shown) | -5.03
25 | O=C(NCc1cccnc1)C(=O)NC1CC1 | -1.33

Row | Structure (SMILES) | % Inhibition @ 10 uM [%]
26 | C=CCn1c(=N)c(C(=O)NCCCOC)cc2c(=O)n3cccc(C)c3nc21 | -1.47
27 | Cc1cccc(CCNC(=O)CCc2nnc3n(Cc4ccc(F)cc4)c(=O)c4ccccc4n23)c1 | -2.42
28 | COc1ccc(N/C=C(/C#N)c2nc(-c3ccc(Br)cc3)cs2)cc1 | 2.01
29 | CSc1cccc(NC(=O)CN(c2ccc(F)cc2)S(=O)(=O)c2ccc3c(c2)OCCO3)c1 | -0.99
30 | O=Cc1cn(CC(=O)NCCC2=CCCCC2)c2ccccc12 | 2.35
31 | N#CC1=C(N)N(c2nc[nH]n2)C2=C(C(=O)CC(c3ccccc3)C2)C1c1cccnc1 (stereo not shown) | 3.99
32 | CC(C)CCNC(=O)Cn1cc(S(=O)(=O)Cc2ccccc2F)c2ccccc21 | 1.76
33 | CCOC(=O)c1c(NC(=O)CSc2nc3nncc-3c(O)n2-c2ccccc2)sc(C)c1C | 2.46
34 | CSc1ccc(CNCCSc2nnnn2-c2ccccc2)cc1 | 2.05
35 | CCc1c(CSC(=N)N)csc1C | -4.51
36 | COc1ccc(NC(=O)CN(c2ccc(F)cc2)S(=O)(=O)c2ccccc2)cc1Cl | -10
37 | N#CCNC(=O)[C@H](Cc1cc(I)c(O)c(I)c1)NC(=O)c1ccc(Br)cc1 | -3.04
38 | COc1ccc(C2CC(c3cccc(Br)c3)Nc3ncnn32)c(OC)c1 (stereo not shown) | -5.19
39 | COc1cc(C(=O)Nc2ccccc2C(=O)Nc2ccccc2)cc(OC)c1OC | 0.83
40 | O=c1/c(=C/c2cccc3ccccc23)sc2nc(C3COc4ccccc4O3)nn12 (stereo not shown) | -3.33
41 | COc1cccc2c1cc1c(=O)n(CC(=O)NCCCN3CCOCC3)nc(C)n12 | 1.68
42 | CC1(C)CC(=O)c2c(nc3ccccc3c2N)C1 | -1.42
43 | CCOc1cc(-c2cc(N)n(S(=O)(=O)c3ccc(OC)c(OC)c3)n2)cc(OCC)c1OCC | 2.34
44 | CCCc1[nH]nc2c1C(c1ccc(Br)cc1)C(C#N)=C(N)O2 (stereo not shown) | -0.661
45 | CN1C(=O)/C(=C/c2ccccc2)S/C1=N/c1cccc(C(=O)O)c1 | 5.42
46 | CCOC(=O)C1=C(C)N=c2s/c(=C\c3cccc(OC)c3)c(=O)n2C1c1ccccc1 (stereo not shown) | -6.88
47 | Cc1nn(-c2ccccc2)nc1C(=O)NCCCN1CCOCC1 | -2.05
48 | Cn1cccc1/C=C1\SC(=O)N(CC(=O)Nc2ccc(F)cc2)C1=O | 6.7
49 | CC(CCc1ccccc1)NCC(C)(C)CN(C)C (stereo not shown) | -3.35
50 | CCOc1ccccc1N(CC(=O)N1CCN(Cc2ccccc2)CC1)S(C)(=O)=O | -1.84

Row | Structure (SMILES) | % Inhibition @ 10 uM [%]
51 | Cc1cc(C(F)(F)F)nn1CC(=O)Nc1ccccc1F | 3.74
52 | CCOc1ccc(N2C(=O)c3ccccc3C2=O)cc1 | 8.19
53 | COc1cc(OC)cc(C2C(C#N)=C(N)OC3=C2C(=O)CC(C)(C)C3)c1 (stereo not shown) | -8.28
54 | CCOC(=O)CSc1nc(-c2ccccc2)cc(-c2ccc(OC)cc2)c1C#N | 3.06
55 | CC1CCN(C(=O)CCCN2C(=O)c3cccc4cccc(c34)C2=O)CC1 | -7.31
56 | CC1CCCN(C(=O)c2cc3c(O)nc4ccccc4c3s2)C1 (stereo not shown) | 6.08
57 | CCOc1ccc(-c2nonc2NC(=O)COc2ccc(C)cc2)cc1OCC | -1.47
58 | Cc1ccc(NC(=O)CCN2CCCCC2)cc1Br | 1.27
59 | O=C(Nc1ccc(Cl)cc1C(=O)NCCO)c1ccc(Cl)cc1Cl | -0.67
60 | O=C(CSCc1cnn(-c2ccccc2)c1-n1cccc1)NCCc1ccco1 | 1.63
61 | Cn1c(=O)[nH]c(=O)c2nc(-c3ccccc3)c(-c3ccccc3)nc21 | -2.85
62 | Cc1ccccc1-c1csc(C(=O)N[C@@H](CC(C)C)C(=O)NCC#N)c1 | -4.72
63 | CC12CCC(C(=O)Nc3ccncc3)(C(=O)C1=O)C2(C)C (stereo not shown) | -1.65
64 | CCOC(=O)N1CCC(NC(=O)c2cnn(-c3cccc(F)c3)c2C2CCNCC2)CC1 | 0.882
65 | CCc1cc2c(SCC(=O)c3ccccc3)ncnc2s1 | -0.178
66 | CN(C)CCN(Cc1ccccc1)Cc1ccccc1C(F)(F)F | -5.44
67 | COC(=O)c1ccc(OCc2ccccc2Cl)c(OC)c1 | -1.4
68 | CCCC[C@H](NC(=O)C(NC(=O)OCc1ccccc1)C1CCCCC1)C(=O)CO (stereo partly shown) | -0.778
69 | CC(C)OCCCNC(=O)C1CCN(c2nc3ccccc3n3cccc23)CC1 | 3.17
70 | O=C(NCCc1ccc(Cl)cc1)c1cc2c(s1)-c1ccccc1S(=O)(=O)C2 | -6.09
71 | CC(=O)C1=C(C)OC(N)=C(C#N)C1c1ccc(C#N)cc1 (stereo not shown) | -1.68
72 | CN(C)CCNC(=O)C1CCCN(C(=O)c2cnn(-c3ccc(F)cc3)c2-n2cccc2)C1 (stereo not shown) | 5.56
73 | CCOc1ccc(C(=O)Nc2cnn(Cc3ccccc3)c2)cc1 | -1.36
74 | COc1c(Cl)cc(Cl)cc1/C=C(\C#N)c1nn(CCO)c(N)c1C#N | 11.7
75 | O=C1C2C3CCC(C3)C2C(=O)N1CN(Cc1ccccc1)CN1C(=O)C2C3CCC(C3)C2C1=O (stereo not shown) | 2.43

Row | Structure (SMILES) | % Inhibition @ 10 uM [%]
76 | Cc1ccc(S(=O)(=O)N(CC(=O)N2CCN(C)CC2)c2cc(Cl)cc(Cl)c2)cc1 | 0.161
77 | CC(CN1CCC(N2CCCCC2)CC1)c1ccccc1 (stereo not shown) | -0.0648
78 | CCC(=O)N1CCN(c2cc(C)c(C(C)=O)cc2F)CC1 | 2.05
79 | CC(=O)C1=C(C)NC(SCC(=O)Nc2nccs2)=C(C#N)C1c1ccccc1Cl (stereo not shown) | 5.37
80 | O=C(Nc1ccc(F)cc1F)c1cccc(F)c1 | -4.58
81 | COC(=O)c1cc(S(=O)(=O)N2CCc3ccccc3C2)c[nH]1 | 2.24
82 | O=c1nc2n(c(O)c1C(c1ccc3c(c1)OCO3)c1c(O)nc3n(c1=O)CCS3)CCS2 (stereo not shown) | -0.984
83 | CC(=O)NC1=NC(=O)/C(=C/c2cc3c(cc2Br)OCO3)S1 | -5.07
84 | COc1ccc(N2CCN(C(=O)CN(C)S(=O)(=O)c3ccc(OC)cc3)CC2)cc1 | 2.22
85 | Cc1nc(SCC(=O)c2ccc(Cl)cc2)c(C#N)c(C)c1C | 1.44
86 | CC(CNC(=O)C1CC1c1ccccc1)NC(=O)C1CC1c1ccccc1 (stereo not shown) | 0.825
87 | Cc1cc(N(C)C)nc(-c2ccccc2)n1 | -3.26
88 | COCCNC(=O)c1cnn2c1NC(c1ccc(OC)cc1)CC2C(F)(F)F (stereo not shown) | 1.02
89 | COc1cc(CN2CCN(c3cccc(C(F)(F)F)c3)CC2)cc(Br)c1O | -1.92
90 | CN(C)c1cccc(C2(c3ccccc3)c3ccccc3Oc3ccccc32)c1 | 0.962
91 | CC(=O)N1c2ccccc2N=C2CC(C)(C)CC(O)=C2C1c1ccc(Cl)cc1 (stereo not shown) | -1.44
92 | CCc1nn(CC(=O)NC(C)c2ccccc2)c(=O)c2cc3occc3n12 (stereo not shown) | 4.55
93 | CCN1CCN(C(=O)COc2ccccc2Cl)CC1 | -4.21
94 | Fc1ccccc1C1C2=C(Nc3ncnn31)c1ccccc1OC2c1ccccc1 (stereo not shown) | 1.73
95 | Fc1ccc(N2CCN(Cc3ccc(F)c(F)c3)CC2)cc1 | -5.68
96 | O=C(COc1ccc(Cl)cc1Cl)Nc1ccc(N2CCOCC2)c2nonc12 | 1.88
97 | Cc1ccccc1NC(=O)/C=C/c1ccccc1Cl | 1.35
